Measurements published in PubChem BioAssay AID1347073 (National Center for Advancing Translational Sciences (NCATS), 2019).
About 200 (0.44%) of roughly 45,000 compounds were called active. Another 7% or so got no clear call; they are omitted. Calls come from the whole dose curve; as a rule, active = well fitted activation curve with a large enough effect; inconclusive = small, poorly fitted or top-dose-only effect; inactive = no such curve, though single readings can be large or run the other way. Some of the results follow.

test: qHTS of TDP-43 Inhibitors: NCGC Sytravon Library Screen; conditions: yeast TDP-43 toxicity rescue, BacTiter-Glo growth, 24 h; series mostly up to 46.1 µM; growth rescue (activation): at the top concentration; note: nearly all actives have a fitted effect of over 55% in size; for growth rescue (activation): 0% is about no effect
Procedure, shortened: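 TDP-43-expressing yeast, pregrown in raffinose, seeded at OD600 0.02 in galactose medium with compound for 24 hr at 30 deg C. Growth read by BacTiter-Glo luminescence, so rescue of toxicity appears as activation.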
Potency is the fitted concentration of half-maximal effect.

Compound	growth rescue (activation)	Potency
Cc1ccc(S(=O)(=O)N2CCOCC2)cc1NC(=O)Cn1ccsc1=N	inactive: 15.1%	–
O=S(=O)(NCCN1CCOCC1)c1ccc(Cl)s1	inactive: 2.05%	–
O=C(Nc1ccc(N2CCOCC2)cc1)c1cc2c(s1)CCCCC2	–	active: 15.8 µM
CCOC(=O)C(=O)N=Nc1c(O)n(C)c2ccccc12	inactive: -0.787%	–
CCOC(=O)Nc1ccc(S(=O)(=O)NC2CCCCC2)cc1	inactive: 13%	–
COc1ccc(C2c3[nH]c4ccccc4c3CCN2C(=O)c2cn3ccccc3n2)c(F)c1 (stereo not given)	inactive: 3.39%	–
O=C(CCN1C(=O)C2C3CC(C(Br)C3Br)C2C1=O)OCC(=O)c1cccc([N+](=O)[O-])c1 (stereo not given)	inactive: 8.47%	–
Cc1nc(NCCc2ccccc2)c(C#N)c(C)c1[N+](=O)[O-]	inactive: 22.7%	–
CC(CC(=O)N1CCN(S(=O)(=O)c2ccccc2)CC1)n1cncn1 (stereo not given)	inactive: -14.2%	–
CCOc1ccccc1NC(=O)CNC(=O)c1nn(-c2ccc(OC)c(OC)c2)c(=O)c2ccccc12	inactive: 12%	–
Clc1ccc2nc(N3CCNCC3)nc(-c3ccccc3)c2c1	inactive: -2.63%	–
CC(C)(C)Nc1nc2ccc([N+](=O)[O-])cc2o1	inactive: 26.5%	–
CCCCNC(=S)N1CCN(C)CC1	inactive: -9.67%	–
N=c1sccn1CC(=O)Nc1cccc(S(=O)(=O)N2CCCCCC2)c1	inactive: 3.39%	–
O=C(NCC1CC1)c1cccc2c(-c3ccc(F)c(F)c3)coc12	–	active: 22.4 µM
Cc1ccccc1C(=O)NC1CCN(CC(=O)NCc2cccs2)CC1	inactive: 16.1%	–
CC(C)CCNC(=O)C(=O)Nc1ccccc1	inactive: 7.46%	–
CC(C)(C)c1oc(C(=O)O)cc1CN1CCOCC1	inactive: 2.27%	–
COc1cc(F)ccc1-c1csc(C(NC(C)=O)c2ccccc2)n1 (stereo not given)	inactive: 4.56%	–
S=C(NCCc1ccccc1)NC1CC1	inactive: 5.46%	–
CCOc1c(CNCc2ccc(C(=O)O)cc2)cccc1OC	inactive: -4.65%	–
COc1ccc(NC(=O)NNC(=O)c2ccc(-c3ccccc3)cc2)c(OC)c1	inactive: 17.9%	–
COC(CNC(=O)c1ccc2c3c(onc13)-c1ccccc1C2=O)OC	inactive: 13.9%	–
O=C(Nc1cccc(S(=O)(=O)N2CCOCC2)c1)[C@@H]1CCCN1S(=O)(=O)c1ccc(Cl)cc1	inactive: -5.55%	–
O=C(Nc1nnc(COc2ccccc2)s1)Nc1ccccc1F	inactive: 6.98%	–
C=CCN(Cc1nc(-c2ccccc2)no1)C(=O)c1ccco1	inactive: 9.05%	–
O=C(Cc1ccccc1)Nn1c(O)c(/C=C2\C=Nc3ccccc32)sc1=S	inactive: 10.6%	–
O=C(Nc1ccc2c(c1)OCO2)c1noc2c1CCCC2	inactive: 16%	–

Compound	growth rescue (activation)	Potency
Cc1ccc(/C=C2/SC(=Nc3ccc(F)cc3)NC2=O)s1	inactive: 9.32%	–
Cc1ccc(NC(=O)C2(c3ccccc3)CC2(Cl)Cl)cc1C (stereo not given)	inactive: 3.8%	–
Cc1ccccc1CCN(C(=O)Cn1nnc2ccccc21)C(C(=O)NCC1CCCO1)c1nc2ccccc2n1C (stereo not given)	inactive: 0.783%	–
Cc1cc(C(F)(F)F)nn1CC(=O)N(C)c1ccccc1	inactive: 5.67%	–
Fc1ccc(N2CCN(C3=Nc4cccc5cccc3c45)CC2)cc1	inactive: 3.93%	–
Cc1cccc(NC(=O)c2ccc(CN3CCc4ccccc4C3)cc2)c1C	inactive: 17.4%	–
CCC(=O)N1CCC1(C)C(=O)NS(=O)(=O)c1cccc(C#N)c1 (stereo not given)	inactive: 11.9%	–
Cc1cccc(Nc2nc(N)nc(CSC(=S)N3CCOCC3)n2)c1	inactive: -4.92%	–
Cc1cc(C)c2oc(C(=O)N3CCN(C)CC3)cc(=O)c2c1	inactive: -7.95%	–
OC(CNCC1COc2ccccc2O1)COc1ccccc1F (stereo not given)	inactive: 3.4%	–
Cc1cc(Br)c(NC(=O)CCl)c(Br)c1	inactive: 1.8%	–
COc1cccc(NC(=O)CN(C)C(=O)C2CC3C=CC2C3)c1 (stereo not given)	inactive: 3.56%	–
Cc1ccc(/C=C/C(=O)NC(=S)Nc2ccc(S(=O)(=O)Nc3cc(C)on3)cc2)cc1	inactive: 21.2%	–
O=C(NC(=S)Nc1nc2ccc(F)cc2s1)c1ccco1	inactive: -3.47%	–
O=C(O)c1ccc2c(=O)n3c(nc2c1)/C(=C/c1ccc(F)cc1)CC3	inactive: -9.94%	–
OCCN1CCN(c2ncnc3c2ncn3[C@H]2CN(Cc3ccc(-c4ccccc4)cc3)C[C@@H](CO)O2)CC1	inactive: 22.3%	–
O=C(CN1CCCC1c1cccs1)Nc1cc(S(=O)(=O)N2CCCC2)ccc1Cl (stereo not given)	inactive: 1.52%	–
COc1ccc(N(Cc2ccccc2)S(=O)(=O)c2cc(C(=O)O)ccc2Cl)cc1	inactive: 20.9%	–
COc1ccc2nccnc2c1[N+](=O)[O-]	inactive: -7.7%	–
O=C(Cc1cccs1)N=Nc1c(O)[nH]c2ccc(Br)cc12	inactive: 18.9%	–
O=C(CCc1ccccc1)NNC(=O)Cc1ccccc1	inactive: 0.598%	–
CCNC(=O)CCn1nc(-c2ccc(C)cc2)c2ccccc2c1=O	inactive: 5.71%	–
Cc1cccc(N2C(=O)CC(Sc3ncn[nH]3)C2=O)c1 (stereo not given)	inactive: -9.01%	–
CCOc1ccc(OCC)c(NC(=O)c2ccc(-c3ccccc3)s2)c1	inactive: 7.28%	–
COc1cc(NC(=O)COC(=O)CSc2ccc3ccccc3c2)c(C)cc1[N+](=O)[O-]	inactive: 7.18%	–
O=C(CCNC(=O)c1ccco1)Nc1nc(-c2ccccc2)cs1	inactive: -13.7%	–
CCCCNC(=O)CN1C(=O)NC2(CCOc3ccccc32)C1=O (stereo not given)	inactive: 5.23%	–
